The campaign covered roughly 310,000 compounds. About 2,200 (0.71%) showed an effect of 50% or more. Effects have a minus sign here. Some of the results follow.
target: human ether-à-go-go-related gene (hERG) potassium channel (human, UniProt Q12809); assay: primary screen, population patch clamp on CHO cells stably expressing hERG
Sequence (Q12809 whole entry, looked up): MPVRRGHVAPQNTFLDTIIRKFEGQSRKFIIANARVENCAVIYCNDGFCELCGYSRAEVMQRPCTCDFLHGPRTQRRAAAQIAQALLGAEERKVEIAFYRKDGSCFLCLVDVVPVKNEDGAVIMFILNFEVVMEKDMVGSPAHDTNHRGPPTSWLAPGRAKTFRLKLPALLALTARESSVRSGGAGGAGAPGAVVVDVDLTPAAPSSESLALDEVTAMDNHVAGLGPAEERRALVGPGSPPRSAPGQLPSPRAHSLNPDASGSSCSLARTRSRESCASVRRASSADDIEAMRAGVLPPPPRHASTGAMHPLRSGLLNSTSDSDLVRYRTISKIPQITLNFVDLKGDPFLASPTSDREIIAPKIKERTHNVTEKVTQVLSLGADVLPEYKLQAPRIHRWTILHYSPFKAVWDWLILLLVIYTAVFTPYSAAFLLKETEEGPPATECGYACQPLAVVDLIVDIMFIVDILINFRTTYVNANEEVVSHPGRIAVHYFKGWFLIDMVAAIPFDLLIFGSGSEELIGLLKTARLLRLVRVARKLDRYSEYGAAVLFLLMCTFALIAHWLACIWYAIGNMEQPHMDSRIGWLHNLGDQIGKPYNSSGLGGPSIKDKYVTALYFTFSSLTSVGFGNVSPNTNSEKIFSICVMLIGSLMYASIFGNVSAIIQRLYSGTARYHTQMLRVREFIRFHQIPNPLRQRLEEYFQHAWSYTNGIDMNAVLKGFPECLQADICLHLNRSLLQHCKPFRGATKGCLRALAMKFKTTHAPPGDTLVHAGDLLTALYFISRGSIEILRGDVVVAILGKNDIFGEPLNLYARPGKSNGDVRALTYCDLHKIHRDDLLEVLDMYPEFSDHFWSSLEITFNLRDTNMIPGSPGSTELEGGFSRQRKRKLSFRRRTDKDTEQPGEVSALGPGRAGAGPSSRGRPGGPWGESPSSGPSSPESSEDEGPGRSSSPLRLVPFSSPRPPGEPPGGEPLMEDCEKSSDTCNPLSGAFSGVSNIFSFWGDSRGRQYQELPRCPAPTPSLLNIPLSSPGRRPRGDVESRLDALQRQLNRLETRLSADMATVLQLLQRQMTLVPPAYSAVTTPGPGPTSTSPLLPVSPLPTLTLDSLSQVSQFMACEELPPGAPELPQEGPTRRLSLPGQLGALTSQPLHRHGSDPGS

SMILES | hERG current change (%, negative = inhibition) at 1uM
Cc1csc2c(N3CCCCC3)ncnc12 | 11.9%
CCn1c(SCc2ccc(C(=O)OC)o2)nc2sc3c(c2c1=O)CCCC3 | 12.4%
Cc1ccc(NC(=O)Cc2c(Cl)cccc2Cl)cc1S(=O)(=O)N(C)C | 15.5%
Cn1c(CSc2nc3ccc(Br)cc3[nH]2)nc2ccccc21 | 6.65%
CS(=O)(=O)N1CCN(c2ccc([N+](=O)[O-])c(SCc3ccco3)c2)CC1 | -0.93%
CC(C)(C)NC(=O)CN(Cc1ccc2c(c1)OCO2)C(=O)CNS(=O)(=O)c1ccccc1 | 12.2%
CC(C)Oc1ccc(S(=O)(=O)N2CCOCC2)cc1NC(=O)Cc1c(F)cccc1Cl | 14.8%
CCOc1ccc(N2CC(C(=O)Nc3cccc(S(=O)(=O)N4CCCC4)c3)CC2=O)cc1 (centres unmarked) | -4.63%
Oc1ccc(Cl)cc1-c1cc(C(F)(F)C(F)F)nc(-c2ccccc2)n1 | 12.3%
Cc1ccc(N=Nc2c(N)nn3c(N)c(C#N)c(C)nc23)cc1 | 9.26%
COc1ccc(NC(=O)c2ccc3c(=O)n(Cc4ccco4)c(=S)[nH]c3c2)c(OC)c1 | 9.15%
CCc1ccc2c(c1)cc(C)c1nnc(SCC(=O)Nc3cc(OC)c(OC)cc3C(=O)O)n12 | 7.24%
O=C(O)CC1(CC(=O)NCc2ccncc2)CCCCC1 | 5.68%
CCOCCCNCc1cc(Cl)cc(Cl)c1OCC.Cl | -6.59%
CCN(CC)C(=O)Nc1ccccc1C | 11%
COc1ccc(C(=O)COC(=O)Cn2cnc3ccccc3c2=O)c(OC)c1 | 3.53%
COc1ccc(OC)c(C2NC(=O)N(C)C(C)=C2C(=O)OCc2ccccc2)c1 (centres unmarked) | 5.6%
COCCn1c(C)cc(/C=N/NC(=O)c2cccnc2)c1C | 19.1%
COc1ccc(CCNC(=O)C2CCC(=O)N(C3CC3)C2)c(OC)c1 (centres unmarked) | 6.06%
Cc1nc(SCC(=O)NC(=O)NC(C)C)nc(C)c1C | 17.5%
Cc1c(CN2CC[C@@H](N3CCN(c4ccccn4)CC3)[C@H](O)C2)[nH]c2ccc(F)cc12 | 6.76%
CCOC(=O)Cn1cc(/C=N/NC(=O)CC#N)c2ccccc21 | 14.2%
CCC(=O)Nc1ccc(NC(=O)c2cccc(OC)c2)nc1 | 7.14%

SMILES | hERG current change (%, negative = inhibition) at 1uM
CCc1cc(=O)n2[nH]c(C)c(-c3ccc(OC)cc3)c2n1 | 8.15%
COc1ccccc1-c1nnc(SCC(=O)NC2CCS(=O)(=O)C2)n1N (centres unmarked) | 8.12%
CC(NC(=O)C(=O)N/N=C\c1ccc([N+](=O)[O-])cc1)c1ccccc1 (centres unmarked) | 19.6%
CCn1c(C(O)c2cc(OC)c(OC)c(OC)c2)nc2ccccc21 (centres unmarked) | 8.37%
C/C(CC(=O)Nc1ccc(N(C)C)cc1)=N\NC(=O)Cc1csc(N)n1 | 4.59%
C=CCn1c(SCC)nc2sc3c(c2c1=O)CCc1ccccc1-3 | 3.16%
O=C(CCc1ccccc1)NC1(Cc2ccccc2)CCN(CCc2cccs2)C1=O (centres unmarked) | 11.4%
Cn1cccc1CC(=O)N/N=C\c1c2ccccc2cc2ccccc12 | -3.5%
O=C(Sc1nnc(-c2ccccc2)o1)N1c2ccccc2Sc2ccccc21 | 7.97%
O=C(N1CCC(n2nc(-c3ccccc3)oc2=O)CC1)C1(c2ccc(Cl)cc2)CC1 | 7.63%
Cc1cccc(C)c1NC(=S)N(CCCN1CCN(C)CC1)Cc1cccs1 | -9.81%
O=C(CSc1nc2[nH]ncc2c(=O)n1-c1ccccc1)N1CCCc2ccccc21 | 3.67%
COCCNC(=O)/C(C#N)=C/c1cccc(/C=C(\C#N)C(=O)NCCOC)c1 | 14.7%
COc1ccc(S(=O)(=O)N2CCN(C(=O)CC3CC4CCC3C4)CC2)cc1 (centres unmarked) | 8.51%
COCCCNC(=O)c1ccc2c(=O)n(Cc3ccccc3OC)c(=S)[nH]c2c1 | 13.1%
CN(C)CCOc1nc(-c2ccccc2)nc2c1oc1ccccc12 | -3.96%
Cc1sc(NC(=O)c2cccc([N+](=O)[O-])c2)c(C(N)=O)c1-c1ccc(C(C)(C)C)cc1 | 2.8%
COc1ccccc1CNC(=O)c1ccc2ccccc2n1 | 17.8%
CCOc1ccc(N2CC(C(=O)NCCC3=CCCCC3)CC2=O)cc1 (centres unmarked) | 2.73%
CCN(CC)S(=O)(=O)c1ccc(OC)c(NC(=O)c2cc([N+](=O)[O-])ccc2Cl)c1 | 13.7%
Cc1cccc(N2CN(Cc3cccnc3)CNC2=S)c1 | 10.2%
CCN(CC)CCNC(=O)Cn1nc(-c2ccccc2)c2ccccc2c1=O | -5.24%
O=C(CCSCCc1ccccn1)Nc1c(F)cc(F)cc1Br | 7.94%

SMILES | hERG current change (%, negative = inhibition) at 1uM
Fc1ccc(-n2c(-c3cccs3)nc3nc4ccccc4nc32)cc1 | 12.6%
COc1ccc(-c2cc(C)no2)cc1S(=O)(=O)Nc1ccc(NC(C)=O)cc1 | 7.97%
CCOc1ccc(NC(=O)CN2C(=O)COc3ccc(Cl)cc32)cc1 | 2.32%
O=C1CC(c2ccco2)Cc2c1cnn2-c1nc2ccccc2s1 (centres unmarked) | 9.9%
COc1ccc(NC(=O)CCn2cc(C)c3ccccc32)cc1 | 6.61%
O=C1CCCC2=C1C1(CCCC1)N=C(Nc1nc3ccccc3s1)N2 | -5.45%
CC1(C)CC(=O)c2cnc(N3CCc4ccccc4C3)nc2C1 | 5.49%
Brc1ccc(OCCn2ccnc2)cc1 | 10.8%
C(=C\c1nnc(-c2cccs2)o1)/c1ccccc1 | 8.47%
COCCNC(=O)C(=O)NNC(=O)c1ccccc1OC | 12.5%
Cc1ccc(NC(=O)c2ccccc2OCc2ccc([N+](=O)[O-])cc2)nc1 | 10.2%
COc1ccc(S(=O)(=O)N2CCN(CC3CC=CCC3)CC2)cc1 (centres unmarked) | 12%
Cc1nn(C(C)C(=O)O)c(=O)c2c1sc1ccccc12 (centres unmarked) | 2.43%
OC1(c2ccc(Cl)cc2)CCN(Cc2nc(-c3cnccn3)no2)CC1 | 1.58%
COc1cccc(N2CCN(CC(=O)Nc3ccccc3C(=O)NCCc3ccccc3)CC2)c1 | 44.7%
Cn1cc(/C=C2\SC(=S)N(NC(=O)c3ccccc3)C2=O)c2ccccc21 | 14.2%
Cc1ccc2nc(N3CCN(Cc4nnnn4C4CCCC4)CC3)c(C#N)cc2c1 | -0.792%
CCCc1cc(=O)oc2cc(OCC(=O)NCCCN3CCOCC3)c(Cl)cc12 | -10.3%
CCOc1ccccc1N(CC(=O)O)S(=O)(=O)c1ccc(C)cc1 | 15%
COC(=O)C(C(=O)OC)C(C[N+](=O)[O-])c1ccc(O)c(OC)c1 (centres unmarked) | 2.6%
CCOC(=O)NC(=O)COC(=O)CNC(=O)c1cccc(OC)c1 | 10.1%
COc1ccc(C(=O)N/N=C/C2CC=CCC2)cc1OC (centres unmarked) | 7.93%
Clc1ccc(OCc2nnc3n2CCCCC3)c(Cl)c1 | 0.0126%

SMILES | hERG current change (%, negative = inhibition) at 1uM
Cc1ccc(SCc2ccc(C(=O)Nc3cccc([N+](=O)[O-])c3)cc2)cc1 | 9.54%
CN1C(=O)Cc2cc(S(=O)(=O)N3CCN(c4cccc(Cl)c4)CC3)ccc21 | 16.1%
COC(=O)c1sccc1NC(=S)N1CCCC(C)C1 (centres unmarked) | 11.5%
CCOC(=O)c1cc(C(=O)OCC)c2ccccn2c1=O | 8.96%
CC1CN(C(=O)COc2ccc3ccccc3c2Br)CC(C)O1 (centres unmarked) | 9.61%
CCc1ccc(N2C(=O)CC(NNc3nc4ccccc4s3)C2=O)cc1 (centres unmarked) | 8.71%
COc1ccccc1CNC(=O)CC1C(=O)NCCN1C1Cc2ccccc2C1 (centres unmarked) | 14%
Cc1csc(NC(=O)CCNS(=O)(=O)c2ccc3c(c2)c(=O)n(C)c(=O)n3C)n1 | 18.7%
COc1ccc(-c2sccc2C(C)C(=O)O)cc1 (centres unmarked) | 13.7%
O=C(CNC(=O)c1cccs1)NCCN1CCN(c2ccccc2F)CC1 | 6.11%
COc1ccc(N2CCOCC2)c(NC(=O)c2cccs2)c1 | -3.22%
Cc1ccc(NNC(=O)Nc2ccc(Cl)cc2)nn1 | 13.1%
O=C(Nc1ccc(Oc2cccnc2)cc1)c1ccccc1F | -1.67%
COc1ccccc1NS(=O)(=O)c1cc(C(=O)NCC(c2cccs2)N2CCOCC2)ccc1C (centres unmarked) | 1.69%
Cc1ccc(OCCC(=O)OCC(=O)NC(=O)c2ccccc2)cc1 | 14.1%
COc1ccccc1NC(=O)Nc1c(C)n(C)n(-c2ccccc2)c1=O | -7.18%
Oc1c(C=C2N=c3ccccc3=N2)sc(=S)n1-c1ccccc1 | 17.7%
O=C(NCc1ccco1)C(=O)NCC1OCCN1S(=O)(=O)c1ccccc1 (centres unmarked) | 5.95%
Cc1ccc(S(=O)(=O)N2CCC(C(=O)N[C@H](C(=O)NCc3ccco3)C(C)C)CC2)cc1 | -0.918%
COc1ccc(C2CC(c3ccc(OC)cc3)n3nc(N)nc3N2)cc1 (centres unmarked) | 4.23%
